Our source for the survival values is PubChem BioAssay AID463173 (ICCB-Longwood Screening Facility, Harvard Medical School, 2010).

About 4,300 (8.3%) of roughly 52,000 compounds were called active. Rule as the data show it: active = survival mostly below about 52% (no sharp cut-off); inactive = mostly above about 56%. This is one part of the list.

The experiment deals with DeltatarO mutant. The experiment in a line: S. aureus survival, RN4220 and DeltatarO strains – OD600, teichoic acid synthesis inhibitors, primary screen (AID 463173). The settings on record: S. aureus RN4220 wild type/DeltatarO growth, OD600, 18 h, hits give low values, screened at 18.75 µg/mL (by protocol).
Turning to `Cc1ccc(NC(=O)Cn2cc(C#N)c3ccccc32)cc1`, the survival is inactive: 101%.
Regarding `O=C(CN1CCC(NC(=O)c2ccccc2)CC1)NCc1ccccc1F`, the survival was inactive: 89%.
In the case of `Cc1nc2ccccc2n1CC(O)COc1ccc(C(=O)O)cc1` (stereo unspecified), the survival is active: 46%.
Then `CCOC(=O)c1cc2occc2n1CC(=O)N1CCCc2ccccc21`, with inactive: 101%; and `COCC(C)NC(=O)c1ccc2c(c1)OCO2` (stereo unspecified), with inactive: 78%; and `COc1cccc(CNC(=O)c2ccc(Cn3c(SCc4ccccc4)nc4cccnc43)cc2)c1`, with inactive: 74%.
To `COc1ccccc1Nc1cc(C(=O)NCCCN(C)c2ccccc2)c2ccccc2n1` belongs inactive: 80%; to `COc1cc(Cl)ccc1Nc1ncc(C(=O)N2CCN(c3ccccc3OC)CC2)c2ccccc12`, inactive: 66%; to `COc1ccc(OC)c(-c2cc(C(=O)Nc3cccc(Cl)c3C)no2)c1`, active: 2%.
Turning to `COc1ccc(-n2nc(C(=O)N3CCN(c4ccccc4OC)CC3)c3c4ccccc4n(C)c3c2=O)cc1`, the survival is inactive: 92%.
For `CCOC(=O)c1ccc(NC(=O)C(CC)Sc2nc3ncccc3[nH]2)cc1` (stereo unspecified), the survival is inactive: 74%.
As for `COc1ccc(N2CC(NC(=O)c3ccc(S(=O)(=O)N4CCCC4)cc3)CC2=O)cc1` (stereo unspecified), the survival is inactive: 112%.
As to `COc1cccc(N2CC(NC(=O)/C=C\c3ccc4c(c3)OCO4)CC2=O)c1` (stereo unspecified), the survival was inactive: 98%.
To `Cc1cc(C)nc(SCC(=O)C(C)(C)C)n1` belongs inactive: 99%.
In the case of `OC(COc1cccc2ccccc12)CN1CCOCC1` (stereo unspecified), the survival is inactive: 90%.
On to `Cc1ccc(NS(=O)(=O)c2ccc(NC(=O)N3CCCC3)cc2)cc1C`, for which the survival is inactive: 75%.
Turning to `Cc1ccc(-n2c3nc(=O)n(C)c(=O)c-3cc3c(Cl)cccc32)c(C)c1`, the survival was inactive: 82%.
Consider `CCn1c(C(=O)N2CCC(C(=O)NCCc3ccccc3)CC2)cc2sccc21`, for which the survival was inactive: 72%.
Then `CCC(Sc1nnc(-c2ccc(OC)cc2)c(-c2ccc(OC)cc2)n1)C(=O)NC1CCCCC1` (stereo unspecified), with inactive: 78%; and `CC1CCCN(S(=O)(=O)c2ccc(NC(=O)c3nc(SC(C)C)ncc3Cl)cc2)C1` (stereo unspecified), with active: 44%; and `O=C(C1CCCO1)N1CCc2ccccc21` (stereo unspecified), with inactive: 71%.
For the compound `CCCCN(Cc1ccccc1)C(=O)c1oc(=O)c2ccccc2c1-c1ccc(C)cc1`, the survival is active: 8%.
Turning to `O=C1c2ccccc2C(=O)N1c1ccc(S(=O)(=O)N2CCOCC2)cc1`, the survival was inactive: 80%.
To `COc1ccccc1/C=C/c1nc(C#N)c(N2CCCCCC2)o1` belongs inactive: 78%; to `CC(C)OC(=O)CC12CN3CC(CC(=O)OC(C)C)(CN(C1)C(=O)c1ccccc1C3=O)C2=O`, inactive: 98%.
Then `CCOc1ccccc1C(=O)Nc1c(NC)c2ccccc2oc1=O`, with inactive: 78%.
